# Measurements published in the supplement of paper PMC8728848.
# The other results are listed elsewhere or left out.
# B1: FimD (Bordetella pertussis) (protein)
# chain: MPARVISFCGAALAVWAGLAVQPAMAVDPPVDCGRALGLHFWSSASLISDQTPDGTLIGKPVVGRSLLSKSCKVPDDIKEDLSDNHDGEPVDIVLELGSNYKIRPQSYGHPGIVVDLPFGSTEETGIAIYIDFGSSPMQKVGERQWLYPQKGEVLFDVLTINGDNAEVRYQAIKVGPLKRPRKLVLSQFPNLFTYKWVFMRGTSQERVLAQGTIDTDVATSTIDLKTCRYTSQTVSLPIIQRSALTGVGTTLGMTDFQMPFWCYGWPKVSVYMSATKTQTGVDGVALPATGQAAGMASGVGVQLINGKTQQPVKLGLQGKIALPEAQQTESATFSLPMKAQYYQTSTSTSAGKLSVTYAVTLNYD
# Key:
# Test in all cases: glycan array binding signal (z-score within array); higher = stronger binding
# Details in all cases: glycan notation: IUPAC condensed, linker removed
# [1] = molecular target: Neu5Ac(a2-3)Gal(b1-3)GalNAc
# Outline: (§1)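 The binding signal is a Z-score computed within each array. Data were drawn from 3228 arrays in the Consortium for Functional Glycomics database, restricted to those with a known protein sequence. Scores were averaged over arrays of the same protein sequence at different concentrations or buffers, and over linkers, and negative values can be taken as non-binding.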
# [2] = molecular target: Neu5Ac(a2-3)Gal(b1-3)GalNAc(b1-3)Gal(a1-4)Gal(b1-4)Glc
# Outline: as §1
# [3] = molecular target: Neu5Ac(a2-3)Gal(b1-3)GalNAc(b1-4)[Neu5Ac(a2-3)]Gal(b1-4)Glc
# Outline: as §1
# [4] = molecular target: Neu5Ac(a2-3)Gal(b1-3)GalNAc(b1-4)[Neu5Ac(a2-8)Neu5Ac(a2-3)]Gal(b1-4)Glc
# Outline: as §1
# [5] = molecular target: Neu5Ac(a2-3)Gal(b1-3)GalNAc6S
# Outline: as §1
# [6] = molecular target: Neu5Ac(a2-3)Gal(b1-3)GlcNAc
# Outline: as §1
# [7] = molecular target: Neu5Ac(a2-3)Gal(b1-3)GlcNAc(b1-2)Man
# Outline: as §1
# [8] = molecular target: Neu5Ac(a2-3)Gal(b1-3)GlcNAc(b1-2)Man(a1-3)[GlcNAc(b1-4)][Neu5Ac(a2-3)Gal(b1-3)GlcNAc(b1-2)Man(a1-6)]Man(b1-4)GlcNAc(b1-4)GlcNAc
# Outline: as §1
# [9] = molecular target: Neu5Ac(a2-3)Gal(b1-3)GlcNAc(b1-2)Man(a1-3)[Neu5Ac(a2-3)Gal(b1-3)GlcNAc(b1-2)Man(a1-6)]Man(b1-4)GlcNAc(b1-4)GlcNAc
# Outline: as §1
# [10] = molecular target: Neu5Ac(a2-3)Gal(b1-3)GlcNAc(b1-3)Gal(b1-3)GlcNAc
# Outline: as §1
# [11] = molecular target: Neu5Ac(a2-3)Gal(b1-3)GlcNAc(b1-3)Gal(b1-4)GlcNAc
# Outline: as §1
# [12] = molecular target: Neu5Ac(a2-3)Gal(b1-3)GlcNAc(b1-3)GalNAc
# Outline: as §1
# [13] = molecular target: Neu5Ac(a2-3)Gal(b1-3)GlcNAc(b1-4)Gal(b1-4)Glc
# Outline: as §1
# [14] = molecular target: Neu5Ac(a2-3)Gal(b1-3)GlcNAc(b1-6)GalNAc
# Outline: as §1
# [15] = molecular target: Neu5Ac(a2-3)Gal(b1-3)GlcNAc6S
# Outline: as §1
# [16] = molecular target: Neu5Ac(a2-3)Gal(b1-3)[Fuc(a1-4)]GlcNAc
# Outline: as §1
# [17] = molecular target: Neu5Ac(a2-3)Gal(b1-3)[Fuc(a1-4)]GlcNAc(b1-3)Gal(b1-3)[Fuc(a1-4)]GlcNAc
# Outline: as §1
# [18] = molecular target: Neu5Ac(a2-3)Gal(b1-3)[Fuc(a1-4)]GlcNAc(b1-3)Gal(b1-4)[Fuc(a1-3)]GlcNAc
# Outline: as §1
# [19] = molecular target: Neu5Ac(a2-3)Gal(b1-3)[GlcNAc(b1-6)]GalNAc
# Outline: as §1
# [20] = molecular target: Neu5Ac(a2-3)Gal(b1-3)[Neu5Ac(a2-6)]GalNAc
# Outline: as §1
# [21] = molecular target: Neu5Ac(a2-3)Gal(b1-3)[Neu5Ac(a2-6)]GlcNAc(b1-3)[Fuc(a1-3)[Gal(b1-4)]GlcNAc(b1-6)]Gal(b1-4)Glc
# Outline: as §1
# [22] = molecular target: Neu5Ac(a2-3)Gal(b1-3)]Neu5Ac(a2-3)Gal(b1-4)]GlcNAc
# Outline: as §1
# [23] = molecular target: Neu5Ac(a2-3)Gal(b1-4)Glc
# Outline: as §1
# [24] = molecular target: Neu5Ac(a2-3)Gal(b1-4)GlcNAc
# Outline: as §1
# [25] = molecular target: Neu5Ac(a2-3)Gal(b1-4)GlcNAc(b1-2)Man
# Outline: as §1
# [26] = molecular target: Neu5Ac(a2-3)Gal(b1-4)GlcNAc(b1-2)Man(a1-3)[GlcNAc(b1-4)][Neu5Ac(a2-3)Gal(b1-4)GlcNAc(b1-2)Man(a1-6)]Man(b1-4)GlcNAc(b1-4)GlcNAc
# Outline: as §1
# [27] = molecular target: Neu5Ac(a2-3)Gal(b1-4)GlcNAc(b1-2)Man(a1-3)[Neu5Ac(a2-3)Gal(b1-4)GlcNAc(b1-2)Man(a1-6)]Man(b1-4)GlcNAc(b1-4)GlcNAc
# Outline: as §1
# [28] = molecular target: Neu5Ac(a2-3)Gal(b1-4)GlcNAc(b1-2)Man(a1-3)[Neu5Ac(a2-3)Gal(b1-4)GlcNAc(b1-2)Man(a1-6)]Man(b1-4)GlcNAc(b1-4)[Fuc(a1-6)]GlcNAc
# Outline: as §1
# [29] = molecular target: Neu5Ac(a2-3)Gal(b1-4)GlcNAc(b1-2)Man(a1-3)[Neu5Ac(a2-6)Gal(b1-4)GlcNAc(b1-2)Man(a1-6)]Man(b1-4)GlcNAc(b1-4)GlcNAc
# Outline: as §1
# [30] = molecular target: Neu5Ac(a2-3)Gal(b1-4)GlcNAc(b1-2)[Neu5Ac(a2-3)Gal(b1-4)GlcNAc(b1-4)]Man(a1-3)[GlcNAc(b1-4)][Neu5Ac(a2-3)Gal(b1-4)GlcNAc(b1-2)[Neu5Ac(a2-3)Gal(b1-4)GlcNAc(b1-6)]Man(a1-6)]Man(b1-4)GlcNAc(b1-4)GlcNAc
# Outline: as §1
# [31] = molecular target: Neu5Ac(a2-3)Gal(b1-4)GlcNAc(b1-2)[Neu5Ac(a2-3)Gal(b1-4)GlcNAc(b1-4)]Man(a1-3)[GlcNAc(b1-4)][Neu5Ac(a2-3)Gal(b1-4)GlcNAc(b1-4)Man(a1-6)]Man(b1-4)GlcNAc(b1-4)GlcNAc
# Outline: as §1
# [32] = molecular target: Neu5Ac(a2-3)Gal(b1-4)GlcNAc(b1-2)[Neu5Ac(a2-3)Gal(b1-4)GlcNAc(b1-6)]Man(a1-6)[Neu5Ac(a2-3)Gal(b1-4)GlcNAc(b1-2)Man(a1-3)]Man(b1-4)GlcNAc(b1-4)GlcNAc
# Outline: as §1
# [33] = molecular target: Neu5Ac(a2-3)Gal(b1-4)GlcNAc(b1-2)[Neu5Ac(a2-3)Gal(b1-4)GlcNAc(b1-6)]Man(a1-6)[Neu5Ac(a2-3)Gal(b1-4)GlcNAc(b1-2)Man(a1-3)][GlcNAc(b1-4)]Man(b1-4)GlcNAc(b1-4)GlcNAc
# Outline: as §1
# [34] = molecular target: Neu5Ac(a2-3)Gal(b1-4)GlcNAc(b1-3)Gal
# Outline: as §1
# [35] = molecular target: Neu5Ac(a2-3)Gal(b1-4)GlcNAc(b1-3)Gal(b1-3)GlcNAc
# Outline: as §1
# [36] = molecular target: Neu5Ac(a2-3)Gal(b1-4)GlcNAc(b1-3)Gal(b1-4)GlcNAc
# Outline: as §1
# [37] = molecular target: Neu5Ac(a2-3)Gal(b1-4)GlcNAc(b1-3)Gal(b1-4)GlcNAc(b1-2)Man(a1-3)[Neu5Ac(a2-3)Gal(b1-4)GlcNAc(b1-3)Gal(b1-4)GlcNAc(b1-2)Man(a1-6)]Man(b1-4)GlcNAc(b1-4)GlcNAc
# Outline: as §1
# [38] = molecular target: Neu5Ac(a2-3)Gal(b1-4)GlcNAc(b1-3)Gal(b1-4)GlcNAc(b1-3)Gal(b1-4)GlcNAc
# Outline: as §1
# [39] = molecular target: Neu5Ac(a2-3)Gal(b1-4)GlcNAc(b1-3)Gal(b1-4)GlcNAc(b1-3)Gal(b1-4)GlcNAc(b1-2)Man(a1-3)[Neu5Ac(a2-3)Gal(b1-4)GlcNAc(b1-3)Gal(b1-4)GlcNAc(b1-3)Gal(b1-4)GlcNAc(b1-2)Man(a1-6)]GalNAc
# Outline: as §1
# [40] = molecular target: Neu5Ac(a2-3)Gal(b1-4)GlcNAc(b1-3)Gal(b1-4)GlcNAc(b1-3)GalNAc
# Outline: as §1
# [41] = molecular target: Neu5Ac(a2-3)Gal(b1-4)GlcNAc(b1-3)Gal(b1-4)GlcNAc(b1-3)[Neu5Ac(a2-3)Gal(b1-4)GlcNAc(b1-3)Gal(b1-4)GlcNAc(b1-6)]GalNAc
# Outline: as §1
# [42] = molecular target: Neu5Ac(a2-3)Gal(b1-4)GlcNAc(b1-3)Gal(b1-4)GlcNAc(b1-6)[Gal(b1-3)]GalNAc
# Outline: as §1
# [43] = molecular target: Neu5Ac(a2-3)Gal(b1-4)GlcNAc(b1-3)Gal(b1-4)[Fuc(a1-3)]GlcNAc
# Outline: as §1
# [44] = molecular target: Neu5Ac(a2-3)Gal(b1-4)GlcNAc(b1-3)GalNAc
# Outline: as §1
# [45] = molecular target: Neu5Ac(a2-3)Gal(b1-4)GlcNAc(b1-3)[Neu5Ac(a2-3)Gal(b1-4)GlcNAc(b1-6)]GalNAc
# Outline: as §1
# [46] = molecular target: Neu5Ac(a2-3)Gal(b1-4)GlcNAc(b1-6)GalNAc
# Outline: as §1
binder,measurement,setting,value
B1,glycan array binding signal (z-score),[1],0.041
same,glycan array binding signal (z-score),[2],-0.186
same,glycan array binding signal (z-score),[3],-0.245
same,glycan array binding signal (z-score),[4],-0.499
same,glycan array binding signal (z-score),[5],-0.442
same,glycan array binding signal (z-score),[6],0.293
same,glycan array binding signal (z-score),[7],-0.437
same,glycan array binding signal (z-score),[8],-0.459
same,glycan array binding signal (z-score),[9],-0.411
same,glycan array binding signal (z-score),[10],0.185
same,glycan array binding signal (z-score),[11],-0.268
same,glycan array binding signal (z-score),[12],-0.152
same,glycan array binding signal (z-score),[13],-0.418
same,glycan array binding signal (z-score),[14],-0.072
same,glycan array binding signal (z-score),[15],-0.032
same,glycan array binding signal (z-score),[16],0.088
same,glycan array binding signal (z-score),[17],-0.191
same,glycan array binding signal (z-score),[18],0.183
same,glycan array binding signal (z-score),[19],-0.392
same,glycan array binding signal (z-score),[20],-0.143
same,glycan array binding signal (z-score),[21],0.25
same,glycan array binding signal (z-score),[22],-0.004
same,glycan array binding signal (z-score),[23],0.091
same,glycan array binding signal (z-score),[24],-0.124
same,glycan array binding signal (z-score),[25],1.16
same,glycan array binding signal (z-score),[26],-0.128
same,glycan array binding signal (z-score),[27],-0.589
same,glycan array binding signal (z-score),[28],-0.361
same,glycan array binding signal (z-score),[29],-0.107
same,glycan array binding signal (z-score),[30],-0.191
same,glycan array binding signal (z-score),[31],-0.408
same,glycan array binding signal (z-score),[32],0.174
same,glycan array binding signal (z-score),[33],-0.276
same,glycan array binding signal (z-score),[34],-0.196
same,glycan array binding signal (z-score),[35],-0.537
same,glycan array binding signal (z-score),[36],-0.284
same,glycan array binding signal (z-score),[37],0.646
same,glycan array binding signal (z-score),[38],0.504
same,glycan array binding signal (z-score),[39],0.685
same,glycan array binding signal (z-score),[40],-0.354
same,glycan array binding signal (z-score),[41],0.07
same,glycan array binding signal (z-score),[42],-0.214
same,glycan array binding signal (z-score),[43],-0.403
same,glycan array binding signal (z-score),[44],-0.244
same,glycan array binding signal (z-score),[45],-0.136
same,glycan array binding signal (z-score),[46],-0.312
